Results from PubChem BioAssay AID463173 (ICCB-Longwood Screening Facility, Harvard Medical School, 2010).
The whole screen tested about 52,000 compounds, of which about 1,700 (3.3%) were called active. Cut-off read from the data, not from the text of the source: active = survival mostly below about 52% (no sharp cut-off); inactive = mostly above about 56%. The list shows a part of the results.

Test system: Wild type
Assay: growth inhibition of S. aureus wild type versus tarO mutant, primary screen, teichoic acid synthesis inhibitors, RN4220, OD600 (AID 463173)
Settings: S. aureus RN4220 wild type/DeltatarO growth, OD600, 18 h, hits give low values, screened at 18.75 µg/mL (by protocol)

SMILES | survival
COc1ccc(CCNC(=O)C2COc3ccccc3C2)cc1OC (configuration not stated) | inactive: 59%
O=C1C2C3C=CC(C3)C2C(=O)N1c1ccc(-c2nc3ccccc3o2)cc1 (configuration not stated) | inactive: 116%
COc1ccc(CCNC(=O)Cc2c(C)c3cc4c(C)coc4c(C)c3oc2=O)cc1 | inactive: 109%
CCCCSc1nnc2c(n1)OC(C)N(C(C)=O)c1ccccc1-2 (configuration not stated) | inactive: 123%
CCc1ccccc1NC(=O)CC1Sc2ccc(C(F)(F)F)cc2NC1=O (configuration not stated) | inactive: 90%
C/C=C/C(=O)N1CCCC(c2nc(-c3cccc(OC)c3)no2)C1 (configuration not stated) | inactive: 95%
O=C(NCCc1ccccc1)c1ccc2c(c1)N(Cc1ccc(F)cc1)C(=O)c1ccccc1S2 | inactive: 78%
COc1ccc(C(=O)NC(c2ccc(Cl)cc2)c2cc(Cl)c3cccnc3c2O)cc1 (configuration not stated) | inactive: 79%
Cn1c(Oc2ccc(Cl)cc2)nc2c1c(=O)n(Cc1ccc(F)cc1)c(=O)n2C | inactive: 74%
CCC(C)(C)C(=O)Nc1ccccc1C(C)C | inactive: 107%
Cc1cc(C)cc(NC(=O)CCC(=O)N2CCSc3ccccc32)c1 | inactive: 84%
CCCCN(CC)C(=O)c1cc2c(=O)n3cccc(C)c3nc2s1 | inactive: 77%
O=C(O)/C(=C\c1ccccc1)NC(=O)c1ccccc1 | inactive: 110%
Clc1ccc2nc(-c3ccccc3)c(NCc3ccco3)n2c1 | inactive: 108%
COc1cc(Cl)c(C)cc1NC(=O)c1cnc(N2CCOCC2)c2ccccc12 | inactive: 68%
Cn1c(SCc2ccc(Br)cc2)nc2c([nH]c3ccccc32)c1=O | inactive: 131%
Cc1ccc(S(=O)(=O)NCCc2csc(-c3cccc(F)c3)n2)cc1 | inactive: 93%
Cc1cccn2c(=O)c3cc(C(=O)Nc4ccc(Cl)c(Cl)c4)sc3nc12 | inactive: 71%
Cc1cc(C(c2nnnn2Cc2ccccc2)N2CCOCC2)c(C)n1-c1ccc2c(c1)OCO2 (configuration not stated) | inactive: 114%
Cc1ccc(Nc2ccc(N3CCN(C(=O)c4ccc([N+](=O)[O-])cc4)CC3)nn2)cc1 | inactive: 100%
CN(C)CCCNC1CS(=O)(=O)CC1O (configuration not stated) | inactive: 112%
CCCCNC(=O)Cc1ccc(Br)cc1 | inactive: 120%
Cc1ccc(C)c(NS(=O)(=O)c2cc3c4c(c2)C(C)C(=O)N4CCC3)c1 (configuration not stated) | inactive: 124%

SMILES | survival
Cc1nc2ccn(Cc3ccco3)c(=O)c2cc1C(=O)NCc1ccc(F)cc1 | inactive: 71%
CCC(c1nnnn1Cc1ccccc1)N1CCN(c2cccc(Cl)c2)CC1 (configuration not stated) | inactive: 105%
CCOC(=O)c1cccc(NS(=O)(=O)c2cc3c(cc2C)NC(=O)CO3)c1 | inactive: 90%
O=C(c1ccc(Nc2nc3ccccc3n3nnnc23)cc1)N1CCN(c2cccc(C(F)(F)F)c2)CC1 | inactive: 83%
Cc1ccc(NC(=O)CN2C(=O)CC(C)Sc3ccccc32)c(C)c1 (configuration not stated) | inactive: 84%
Cc1c(Cl)cccc1-n1ncc(C(=O)N2CCOCC2)c1C1CCN(C(=O)OC(C)(C)C)CC1 | inactive: 101%
CCNC(=O)Cn1nc(C)n2c(cc3c(OC)cccc32)c1=O | inactive: 85%
Cc1oc2ccc(O)c(CN3CCOCC3)c2c1C(=O)Nc1cccc(Cl)c1C | inactive: 84%
Cc1ccc(NC(=O)C2CCN(c3nnc(C)c4c(C)n(-c5ccccc5)nc34)CC2)cc1Cl | inactive: 83%
Cc1ccc(OCC(=O)OCc2cc(=O)n3nc(C4CC4)sc3n2)cc1 | inactive: 117%
On1ccc2c(Br)cncc21 | inactive: 106%
Cc1cc(C)n(C(C)CC(=O)NCc2ccc(Cl)cc2)n1 (configuration not stated) | inactive: 66%
Cc1ccc(OCCCSc2nc(-c3ccc(C(C)(C)C)cc3)nc3cc(=O)[nH]n23)cc1C | inactive: 49%
COCCCNC(=O)C1CCN(c2cc(C)nc3c(-c4ccc(Cl)cc4)c(C)nn23)CC1 | inactive: 77%
CCN(CC)CCCNC(=O)c1ccc2c(Cl)c3c(nc2c1)CCCC3 | inactive: 86%
CCc1nn2c(=O)cc(COC(=O)C(CC)c3ccccc3)nc2s1 (configuration not stated) | inactive: 73%
CCOC(=O)c1c(Oc2ccc(C(C)=O)cc2)nnc(-c2ccccc2)c1-c1ccccc1 | inactive: 92%
CCOC(=O)Cn1c(=O)n(-c2ccccc2OC)c2nc(-c3ccc(C(C)C)cc3)nc(C(N)=O)c21 | inactive: 82%
O=C1C(=Cc2ccc3c(c2)OCO3)C(=O)c2ccccc21 | inactive: 109%
CC(C)CC1Nc2ccc(C(=O)NCCCOC(C)C)cc2NC1=O (configuration not stated) | inactive: 67%
COc1ccc(C(=O)NCCn2cc(SCC(=O)Nc3ccc4c(c3)OCCO4)c3ccccc32)cc1OC | inactive: 74%
O=C(CC1N=C2c3ccccc3N=C(SCC(=O)Nc3ccc(F)cc3)N2C1=O)NCc1cccs1 (configuration not stated) | inactive: 71%
CCCN1C2=C(C(=O)CCC2)C(c2ccc(F)cc2)C2=C1c1ccccc1C2=O (configuration not stated) | inactive: 109%

SMILES | survival
COc1ccc(CC(=O)N2CCc3cc(OC)c(OC)cc3C2COc2ccc(F)cc2)cc1OC (configuration not stated) | inactive: 63%
O=C(NCc1ccccc1)c1ccc2oc(=O)n(Cc3ccccc3)c2c1 | inactive: 71%
C=CCc1cccc2cc(NC(C)=O)c(=O)oc12 | inactive: 104%
COc1ccc2c(CNCc3cccs3)c(C(=O)O)n(Cc3ccccc3F)c2c1 | inactive: 89%
CN(C)c1ccc(NC(=O)CSC2=Nc3ccccc3C3=NC(CCC(=O)NCc4cccs4)C(=O)N23)cc1 (configuration not stated) | inactive: 63%
Cc1c(C(=O)NC(C)c2ccccc2)sc2nc3n(c(=O)c12)CCCC3 (configuration not stated) | inactive: 87%
NS(=O)(=O)c1ccc2nc(NC(=O)COc3ccc(Cl)cc3Cl)sc2c1 | inactive: 70%
CCOC(=O)c1c(-c2cccs2)csc1NC(=O)C(F)(F)F | inactive: 106%
COCCNC(=O)c1ccc2c(c1)N=C(C)c1cc(C)ccc1S2 | inactive: 80%
Cn1c(SCC(=O)Nc2nc3ccccc3s2)ncc(C(=O)Nc2ccc(F)cc2)c1=O | inactive: 60%
CC(C)NC(=O)Cn1ccc2ccc(C#N)cc21 | inactive: 104%
COc1cccc(C(=O)Nc2cccc(C(=O)OCc3cc(=O)n4c(C)csc4n3)c2)c1 | inactive: 133%
CC1CCN(C(=O)c2cccc(NC(=O)c3nsc4ccccc34)c2)CC1 | inactive: 69%
CCOC(=O)COc1ccc(C)cc1C(=O)c1ccn2nc(-c3ccc(F)cc3)cc2n1 | inactive: 69%
Cc1nc2cc(-c3ccccc3)sc2c(=O)n1N | inactive: 118%
CCOc1ccc(-n2nc3ccc(NC(=O)c4ccc(-c5cccc(Cl)c5)o4)cc3n2)cc1 | inactive: 66%
Cc1nc2scc(C)n2c(=O)c1S(=O)(=O)Nc1cccc(C(F)(F)F)c1 | inactive: 94%
COc1ccccc1Cc1nc2ccccc2nc1SCC(=O)NCc1ccccc1Cl | inactive: 131%
O=C(O)C1CCCN1C(=O)C12CC3CC(CC(C3)C1)C2 (configuration not stated) | inactive: 116%
N=Nc1c(O)n(CC(=O)Nc2ccccc2)c2ccccc12 | inactive: 112%
CN1CCc2nc3sc(C(=O)Nc4ccccc4C(F)(F)F)c(N)c3cc2C1 | inactive: 153%
CCCC1=Nc2cc(C(=O)N3CCC(C)CC3)ccc2Sc2ccc(C)cc21 | inactive: 107%
CC1=C(C(=O)OC2CCCCCC2)C(c2cccc(Cl)c2)CC(=O)N1 (configuration not stated) | inactive: 124%

SMILES | survival
Cc1ccc2c(=O)c(C(=O)c3cccc(Cl)c3)cn(CC(=O)Nc3ccccc3C(F)(F)F)c2n1 | inactive: 102%
COc1ccccc1C(=O)OCc1cc(=O)n2nc(C(C)C)sc2n1 | inactive: 73%
COC(=O)Cn1c(C(O)c2ccccc2)nc2ccccc21 (configuration not stated) | inactive: 97%
CC(Oc1ccccc1)C(=O)N1CCCC1 (configuration not stated) | inactive: 112%
CCn1nnc(NC(=O)c2ccccc2)n1 | inactive: 105%
CC1=Nc2cc(C(=O)NCCc3ccc(Cl)cc3)ccc2Sc2c(C)ccc(C)c21 | inactive: 91%
COc1ccccc1CNC(=O)c1oc2ccc3c(c2c1C)C(=O)CC(C)(C)O3 | inactive: 59%
COc1ccc(-c2noc(-c3ccc(NCC4CCCO4)c([N+](=O)[O-])c3)n2)cc1OC (configuration not stated) | inactive: 79%
CC(=O)Nc1ccc(NC(=O)CCS(=O)(=O)c2ccc3c(c2)CC(=O)N3C)cc1 | inactive: 66%
CCOC(=O)CC(=O)CSc1nc2ccccc2c(=O)n1CCc1ccc(S(N)(=O)=O)cc1 | inactive: 71%
CC1CCCCN1CCCNC(=O)c1cc(Sc2ccc(Cl)cc2)nc2ccccc12 (configuration not stated) | inactive: 78%
COc1ccc(NC(=O)Cn2cc(S(=O)(=O)Cc3ccc(F)cc3)c3ccccc32)cc1OC | inactive: 70%
CCOC(=O)C1CCC(CN(Cc2cccc(Br)c2)S(=O)(=O)c2ccc(Cl)cc2)CC1 (configuration not stated) | inactive: 90%
Cc1ccc(C)c(CNC(=O)c2cc3ccccn3n2)c1 | inactive: 76%
CC1Cc2cc(S(=O)(=O)NCc3ccc(N(C)C)cc3)ccc2N1C(=O)C1CCC1 (configuration not stated) | inactive: 138%
COc1ccc(N2CC(NC(=O)COc3ccc4ccccc4c3)CC2=O)cc1OC (configuration not stated) | inactive: 99%
CCN1C(=O)C(Cc2nc3ccccc3c(=O)n2-c2ccc(OC)cc2)c2ccccc21 (configuration not stated) | inactive: 73%
C/C(=N\NC(=O)Cc1ccc(Cl)cc1)c1ccccc1O | inactive: 114%
CCOC(=O)N1CCc2c(sc3c2C(=O)NC(c2ccccc2F)N3)C1 (configuration not stated) | inactive: 66%
Cc1ccc(-n2c(=O)c3c4c(sc3n(CC(=O)Nc3ccccc3C)c2=O)CCCCC4)cc1C | inactive: 115%
CCCCC1CCC(C(=O)N2CC(=O)Nc3ccc(Cl)cc3C2c2ccc(F)cc2)CC1 (configuration not stated) | inactive: 71%
O=C1C(c2ccnc3ccccc23)=C(O)c2ccccc21 | inactive: 104%
CCN(CC)c1ccc(-c2nc(-c3ccco3)no2)cc1[N+](=O)[O-] | inactive: 81%
